The source gives no read counts; variants with many changes may rest on few reads.
B1: OR4K15 (parent)
chain: GUUAACGGUCAUAGGCCAUGGAAACUAGGAGCACCAUUUCGCUGCCAGUGAAGAAAUGAACAAAGAAAAUCUGGGCCAGGCAGGCAUCAAAAGAAAUAGUCUUGCGCUCAACCAGAAAGUCUGUAAUCAUUUUAAGGGUA

Variants of: B1
Experiment: self-cleavage, relative activity (ratio to wild type); higher = more cleavage; in vitro, sequencing; the parent is a self-cleaving ribozyme
For A30U A90U A94G U132C, the self-cleavage was 1.64. In the case of A30U U49A U122C, the self-cleavage is reported as 1. A30G U37G A62U U124A A125G showed a self-cleavage of 1.34. Variant A30G U39C A54G U70A G74A A89G A134U has a self-cleavage of 0.08. Variant A30G A69G A135G has a self-cleavage of 0.5. A33G A82U U100C U127C gave a self-cleavage of 0.13. In the case of A30G A47G A52G, the self-cleavage is reported as 0.77. A33G A47C A54G U131C gave a self-cleavage of 0.52. In the case of A30G A51G A59G A82G U132C, the self-cleavage is reported as 0.38. In the case of A33G U39A U43A A51G A69G A91G, the self-cleavage is reported as 0.69. Work on A30U A63G U122C yielded a self-cleavage of 0.9. Work on A33G A51G U87C yielded a self-cleavage of 0.23. For A33G A36U U49G, the self-cleavage was 0.52. With A30U A91G A134G the self-cleavage was 1.86. A33G A60G A69G U108C A118G gave a self-cleavage of 0.02. Variant A30U A36U U39A A82G A118G has a self-cleavage of 0.4. Work on A33G A90U U131C yielded a self-cleavage of 0.9. For A33G A54G C85U, the self-cleavage was 0.62. With A33G A60G A64G A69G the self-cleavage was 0.19. With A33G A126U U139C the self-cleavage was 0.68. In the case of A30G A63G A95G, the self-cleavage is reported as 1.57. A33G U57C A68G A78G A91G gave a self-cleavage of 0.04. A30U A64G A118G showed a self-cleavage of 1.55. Variant A33G U72C A118U U127C has a self-cleavage of 0.02. For A33C U49C A66G U127C, the self-cleavage was 1.62. For A30G U49A A67G, the self-cleavage was 1.4. Variant A30U C46U A54U U108A has a self-cleavage of 0.02. For A30G A68G A89U A110G, the self-cleavage was 0.16. In the case of A33G A60G A92G U124A A129G, the self-cleavage is reported as 0.21. With A33G G50A A91G the self-cleavage was 0.77. A30U A78G U108C gave a self-cleavage of 0.02. Variant A30G G80U G83U U87C A114G A117G has a self-cleavage of 0.01. With A30G A118G U120C U127G the self-cleavage was 0.27. A33G A54G G79A showed a self-cleavage of 0.08. Variant G31U A55G A86G U87C has a self-cleavage of 0.24. For A30G A68G U133C, the self-cleavage was 1.32. A30G U87C A90G A110G U131C showed a self-cleavage of 0.02. Variant A30G U39A A90G A96G has a self-cleavage of 0.43. A33C A52G A92G gave a self-cleavage of 1.1. A30G A67U U87G A110G gave a self-cleavage of 0.15. Variant A30U A68G U102C U103C U120C has a self-cleavage of 0.07. A30G U39C A95G showed a self-cleavage of 1.51. A33G A82G U103C gave a self-cleavage of 1.47. Variant A33G U49A G50U has a self-cleavage of 0.17. With A33G U37C A96G the self-cleavage was 0.66. Work on A30G U97C A98G U124C yielded a self-cleavage of 0.17. In the case of A33G A78U A110U A129G U132C, the self-cleavage is reported as 0.04. In the case of A30U A110G U127C, the self-cleavage is reported as 0.11. For A30G A56G A92C A96G, the self-cleavage was 0.37. For A30G A82G A118G, the self-cleavage was 0.08. In the case of A33G A51G A67U C128U, the self-cleavage is reported as 1.25. Work on A33G A54G A55G U100A A140G yielded a self-cleavage of 0.26. A30G U43A U87C A89G showed a self-cleavage of 1.26. For A33G A66U A116G, the self-cleavage was 0.33. Work on A33G C40U A56G A134G yielded a self-cleavage of 0.14. A33G C40U A59G G80A gave a self-cleavage of 0.08. In the case of A30U A68G A78G A89U U108C, the self-cleavage is reported as 0.01. Variant A33G A66U A68G has a self-cleavage of 0.2. A30G U72C U100C gave a self-cleavage of 0.6. A30G A60G U70C gave a self-cleavage of 0.81. With A33G A54U A92U the self-cleavage was 1.16. With A30G U100C A116U the self-cleavage was 0.07. Variant A30G A56G A62G has a self-cleavage of 1.2. With A30U U87C A135G the self-cleavage was 1.58. With A33G U39C U97A U120C the self-cleavage was 0.23. Work on A30U U49G A90U A117G U131A U132C yielded a self-cleavage of 1.78. A33G A89G A118C U120C showed a self-cleavage of 0.3. Work on A30G U39C A82G yielded a self-cleavage of 0.44. In the case of C32U U120C U130C, the self-cleavage is reported as 0.48. A30G A36U A68G gave a self-cleavage of 1.12. For A30U A59U U87C A125G, the self-cleavage was 0.43. A33G A64U A91G gave a self-cleavage of 0.62. For A33G A89G U108C A117G, the self-cleavage was 0. For A30G A66U A91U A116G U120A, the self-cleavage was 0.33. With A33G A51U A64U the self-cleavage was 1.56. With A30G A60G A90G the self-cleavage was 0.56. For A33G A36G G48U A82U U87C A110G, the self-cleavage was 0.03. Work on A33G A64G A78G U87C A91G yielded a self-cleavage of 0.05. With A33G U39C A111G C113U the self-cleavage was 0.02. For A33G A62G U132C, the self-cleavage was 0.56. Work on G31A A66G A117G U133A yielded a self-cleavage of 2.37. A30G A55G A78G showed a self-cleavage of 0.51. A30G A52C U131C gave a self-cleavage of 0.78. A33G A117G G136A gave a self-cleavage of 1.08. With A30G U39C U72C A95G U131A the self-cleavage was 0.61. For A30G A54G A68G U131C, the self-cleavage was 1.21. In the case of A30G A95G U108C, the self-cleavage is reported as 0. A30G U37C A56G gave a self-cleavage of 1.23. Work on A30G A54G A60G yielded a self-cleavage of 1.16. Work on A33G A47G A95G yielded a self-cleavage of 1.63. With A33G U37C A60G the self-cleavage was 0.92. In the case of A30G U49G A62G A89U A98G, the self-cleavage is reported as 0.24. Variant A33G A95G A140G has a self-cleavage of 1.1. A33G A116G U131C gave a self-cleavage of 0.14. Work on A33G U39C A91G A111G U124A yielded a self-cleavage of 0. For A30U A51G U97A U132C, the self-cleavage was 0.39. Variant A30G U108C A116G U131C has a self-cleavage of 0.02. A30G U38A A78G A129G gave a self-cleavage of 0.15. For A33G A69G C112U, the self-cleavage was 0.01. In the case of C32G U57C U120C, the self-cleavage is reported as 0.9. For A30U U108C A118G U122A U131C, the self-cleavage was 0. Work on A33G A86C A111U yielded a self-cleavage of 0.02. G31A U72A U102C showed a self-cleavage of 0.6. A33G U38C A59U U122A A140U showed a self-cleavage of 1.92. A30G U100C U102A U122C showed a self-cleavage of 2.02. With G31C A33U A54G C76U U87C the self-cleavage was 0.25. In the case of A30G A56G U100C U120C, the self-cleavage is reported as 2.26. In the case of A30U U37C U38C, the self-cleavage is reported as 0.84. A30G U49G A68G A90G showed a self-cleavage of 0.59. Work on A30G G74A A82G C85A U102A U139C yielded a self-cleavage of 0.1. For A33G A66G U127C A135U U139C, the self-cleavage was 0.24. A30G A51G A92G U108C gave a self-cleavage of 0.01. For A33G U39C A95G U139C, the self-cleavage was 1.9. A30G U37C A82G showed a self-cleavage of 0.86. In the case of A33G A62G U103A, the self-cleavage is reported as 0.63. A33G A111U U122A showed a self-cleavage of 0.02. For A30G A62G U100C, the self-cleavage was 1.72. A30U A82G A92G showed a self-cleavage of 0.66. Variant C32A U57C U100C has a self-cleavage of 1.7. A30G A56G U120C A126G gave a self-cleavage of 0.88. Work on A33G A66G U72C A140G yielded a self-cleavage of 0.25. In the case of A33G A51G A60G A69G, the self-cleavage is reported as 0.82. A30G A60U G65A A68G A98G U122A showed a self-cleavage of 0.39. For A33G A55G A78U A117G, the self-cleavage was 0.13. For A33G C40U A140G, the self-cleavage was 0.25. With A33G A59G A60G U132A the self-cleavage was 0.12. Variant A30G U87C U100C has a self-cleavage of 0.68. A33G A55G A126G gave a self-cleavage of 0.97. Work on A30U C85A A89G C107U yielded a self-cleavage of 0.03. In the case of A33G A56G A68G U72A A78U A92G U133C, the self-cleavage is reported as 0.08. A30G U57C A64G U103C A114G gave a self-cleavage of 0.07. Work on A33G A78U U130C yielded a self-cleavage of 0.09. A33G A64G A135G showed a self-cleavage of 1.15. With A33G U57C A126G the self-cleavage was 0.42. Work on G31C A68G A89G C112A yielded a self-cleavage of 0. Work on A33G A59G A66G A78U A134G yielded a self-cleavage of 0.14. In the case of G31U U43A U122C, the self-cleavage is reported as 2.73. Variant G31A U43A A94G has a self-cleavage of 1.78. Work on A30G C128U U133A yielded a self-cleavage of 2.05. With A33G A117U A129U the self-cleavage was 0.81. A33G G41A A51U A125U gave a self-cleavage of 1.06. For A30G U38C A62G A78G, the self-cleavage was 0.38. Work on A30G U70C A140G yielded a self-cleavage of 0.87. With A30G A56G A67G A129G U130C the self-cleavage was 1.48. In the case of A30U A94G A111C A118G, the self-cleavage is reported as 0. G31U A68G A126G gave a self-cleavage of 0.54. Work on A30G A78G A92G yielded a self-cleavage of 0.27. A30G U43C U57A U132A showed a self-cleavage of 0.87. Work on A30U A63G U132C yielded a self-cleavage of 1.76. For A33G A63U A91G A95G U127C U131A, the self-cleavage was 1.41. In the case of A33C A59U A63G, the self-cleavage is reported as 0.31. Work on A30G A54U A92G yielded a self-cleavage of 1.81. Work on A30U A52G A66G yielded a self-cleavage of 1.92. In the case of A30G U43A U72C A78G A116U, the self-cleavage is reported as 0.05. Variant A33G A59G A90G A98G U122A A126G has a self-cleavage of 0.11. For A33G U57C C113U, the self-cleavage was 0.03. With A33G A64G U70C U100A U103C U120C U133C the self-cleavage was 0.05. Variant A30G A118G U122C has a self-cleavage of 0.6. For A33G A63G U87C, the self-cleavage was 0.73. A33G A55G A78G showed a self-cleavage of 0.08. A30G U57C A60G G73A showed a self-cleavage of 0.23. A30G A36G U127C showed a self-cleavage of 0.39. A33G A47U U72A U120C gave a self-cleavage of 0.06. A33G A62G U70C A78G showed a self-cleavage of 0.14. In the case of A33G U49C U124C, the self-cleavage is reported as 0.33. With A33C A56G U57C the self-cleavage was 1.44. Work on A33G A51C A52C yielded a self-cleavage of 0.42.
